According to the supplement of paper PMC5499739:
The full ranking holds about 16,000 sequences; the median of “Z-score” is about -0.37, and the highest 2% start at about 3.2. Some of the results follow.

Each sequence was assayed on RBM10 RRM1-ZnF (GST-tagged construct) (assay: RNAcompete 7-mer binding Z-score; higher = stronger binding preference).
Description: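 RNAcompete: 20 pmol GST-tagged RBM10 RNA-binding constructs were incubated with a designed RNA pool of about 241,000 sequences up to 41 nt (1.5 nmol) on glutathione beads for 30 min at 4 °C and washed. Bound RNAs were identified by microarray hybridisation. Each RNA 7-mer is scored by a one-sided Z-score of its enrichment, computed over probes that contain the 7-mer within longer pool sequences.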
With CACCAGU the “RNAcompete 7-mer binding Z-score” value was -0.509. UACACAU was tested, and the “RNAcompete 7-mer binding Z-score” value was -0.392. With UAUAUCC the “RNAcompete 7-mer binding Z-score” value was -0.691. In the case of GCGAUUG, the “RNAcompete 7-mer binding Z-score” value is reported as 0.212. In the case of GUACUCG, the “RNAcompete 7-mer binding Z-score” value is reported as -0.165. For UUAAGCG, the “RNAcompete 7-mer binding Z-score” value was -0.522. CGAACAC was tested, and the “RNAcompete 7-mer binding Z-score” value was -0.613. AUCUCGC was tested, and the “RNAcompete 7-mer binding Z-score” value was -0.75. For GACACAC, the “RNAcompete 7-mer binding Z-score” value was -0.366. GCCAUUA was tested, and the “RNAcompete 7-mer binding Z-score” value was -0.714. For GAUUAAA, the “RNAcompete 7-mer binding Z-score” value was -0.0967. With AGCCACG the “RNAcompete 7-mer binding Z-score” value was -0.188. In the case of AGUGCUU, the “RNAcompete 7-mer binding Z-score” value is reported as -0.532. For UGACUGU, the “RNAcompete 7-mer binding Z-score” value was -0.646. UCCCUUU was tested, and the “RNAcompete 7-mer binding Z-score” value was -0.912. In the case of GCAGGGC, the “RNAcompete 7-mer binding Z-score” value is reported as 1.35. For UACGGUA, the “RNAcompete 7-mer binding Z-score” value was 0.758. For AGGACUC, the “RNAcompete 7-mer binding Z-score” value was -0.425. In the case of CUGGCCC, the “RNAcompete 7-mer binding Z-score” value is reported as -0.168. UUGAUGC was tested, and the “RNAcompete 7-mer binding Z-score” value was -0.337. For GGCUACG, the “RNAcompete 7-mer binding Z-score” value was 0.602. In the case of CUCCGUC, the “RNAcompete 7-mer binding Z-score” value is reported as -0.935. UGAAUAC was tested, and the “RNAcompete 7-mer binding Z-score” value was -0.366. In the case of CCCAGCC, the “RNAcompete 7-mer binding Z-score” value is reported as -0.324. GGUCGUG was tested, and the “RNAcompete 7-mer binding Z-score” value was 1.25. With CUUCCAU the “RNAcompete 7-mer binding Z-score” value was -0.766. With CGCCAUA the “RNAcompete 7-mer binding Z-score” value was -0.594. With CUUUUUU the “RNAcompete 7-mer binding Z-score” value was -0.948. For AACACGA, the “RNAcompete 7-mer binding Z-score” value was -0.314. With CAAUGUU the “RNAcompete 7-mer binding Z-score” value was -0.649. AGAGGAC was tested, and the “RNAcompete 7-mer binding Z-score” value was 0.615. In the case of UGAACAU, the “RNAcompete 7-mer binding Z-score” value is reported as -0.373. GUUGCGC was tested, and the “RNAcompete 7-mer binding Z-score” value was 0.215. CACAUAA was tested, and the “RNAcompete 7-mer binding Z-score” value was -0.678. With UGCGACA the “RNAcompete 7-mer binding Z-score” value was -0.145. In the case of UUCCUCU, the “RNAcompete 7-mer binding Z-score” value is reported as -0.639. UCUGAGG was tested, and the “RNAcompete 7-mer binding Z-score” value was -0.149. GAUUACC was tested, and the “RNAcompete 7-mer binding Z-score” value was -0.565. In the case of GACGUCG, the “RNAcompete 7-mer binding Z-score” value is reported as -0.285. In the case of AUUUAAC, the “RNAcompete 7-mer binding Z-score” value is reported as -0.561. For GACCUGG, the “RNAcompete 7-mer binding Z-score” value was -0.191. With ACAACGG the “RNAcompete 7-mer binding Z-score” value was 0.644. In the case of CCCCUGU, the “RNAcompete 7-mer binding Z-score” value is reported as -0.5. ACUUUAA was tested, and the “RNAcompete 7-mer binding Z-score” value was -0.795. With AUCAUUC the “RNAcompete 7-mer binding Z-score” value was -0.753. For AAACCAU, the “RNAcompete 7-mer binding Z-score” value was -0.649. For ACAGAGA, the “RNAcompete 7-mer binding Z-score” value was 0.0885. For AGAGUGA, the “RNAcompete 7-mer binding Z-score” value was 0.81. For CUAAUUA, the “RNAcompete 7-mer binding Z-score” value was -0.685. With UUAUGUA the “RNAcompete 7-mer binding Z-score” value was -0.23. With UGAUGAC the “RNAcompete 7-mer binding Z-score” value was -0.0512. With AAGCCGA the “RNAcompete 7-mer binding Z-score” value was -0.578. CGCAGCG was tested, and the “RNAcompete 7-mer binding Z-score” value was -0.11. In the case of UGAGUUG, the “RNAcompete 7-mer binding Z-score” value is reported as 0.625. With GUCCGGG the “RNAcompete 7-mer binding Z-score” value was 0.797. AUGACCU was tested, and the “RNAcompete 7-mer binding Z-score” value was -0.795. In the case of UGGCCUU, the “RNAcompete 7-mer binding Z-score” value is reported as -0.642. In the case of UGCCAUU, the “RNAcompete 7-mer binding Z-score” value is reported as -0.967. AAAAGAA was tested, and the “RNAcompete 7-mer binding Z-score” value was 0.108. For GAUGUAU, the “RNAcompete 7-mer binding Z-score” value was 0.215. In the case of AGGCUGU, the “RNAcompete 7-mer binding Z-score” value is reported as -0.181. For UUGAACC, the “RNAcompete 7-mer binding Z-score” value was -0.633. In the case of CACUCCU, the “RNAcompete 7-mer binding Z-score” value is reported as -0.776. In the case of CGCGUCG, the “RNAcompete 7-mer binding Z-score” value is reported as -0.0155. For GUCGGCG, the “RNAcompete 7-mer binding Z-score” value was 0.368. In the case of AGUAUCC, the “RNAcompete 7-mer binding Z-score” value is reported as -0.636. In the case of CGCCAAC, the “RNAcompete 7-mer binding Z-score” value is reported as -0.444. In the case of ACAUCUC, the “RNAcompete 7-mer binding Z-score” value is reported as -0.711. With AUGUGAA the “RNAcompete 7-mer binding Z-score” value was 0.563. For ACGAUCC, the “RNAcompete 7-mer binding Z-score” value was -0.659. For GAGUUCC, the “RNAcompete 7-mer binding Z-score” value was -0.474. AUACUGA was tested, and the “RNAcompete 7-mer binding Z-score” value was -0.123. GGAAGUA was tested, and the “RNAcompete 7-mer binding Z-score” value was 1.44. For CUAGGAC, the “RNAcompete 7-mer binding Z-score” value was 0.335. GCUCAGG was tested, and the “RNAcompete 7-mer binding Z-score” value was 0.547. ACGUAUC was tested, and the “RNAcompete 7-mer binding Z-score” value was -0.62. With ACAAUUG the “RNAcompete 7-mer binding Z-score” value was -0.0772. With GCCUCCC the “RNAcompete 7-mer binding Z-score” value was -0.337. For GAGACUA, the “RNAcompete 7-mer binding Z-score” value was -0.279. For CACAACC, the “RNAcompete 7-mer binding Z-score” value was -0.552. UAGGAAU was tested, and the “RNAcompete 7-mer binding Z-score” value was 1.22. CUCGACG was tested, and the “RNAcompete 7-mer binding Z-score” value was -0.558. With UCUCCGC the “RNAcompete 7-mer binding Z-score” value was -0.678. For CCUGAUU, the “RNAcompete 7-mer binding Z-score” value was -0.867. For CCUUGGC, the “RNAcompete 7-mer binding Z-score” value was -0.591. GCCUUAU was tested, and the “RNAcompete 7-mer binding Z-score” value was -0.915. In the case of CUGUGAA, the “RNAcompete 7-mer binding Z-score” value is reported as -0.292. For GAUCAGA, the “RNAcompete 7-mer binding Z-score” value was 0.316. For ACUGCGG, the “RNAcompete 7-mer binding Z-score” value was 0.397. With AACCACA the “RNAcompete 7-mer binding Z-score” value was -0.454. For UAGAACC, the “RNAcompete 7-mer binding Z-score” value was -0.578. GUCACUU was tested, and the “RNAcompete 7-mer binding Z-score” value was -0.539. In the case of CUCAUAC, the “RNAcompete 7-mer binding Z-score” value is reported as -0.831. UUAGCGA was tested, and the “RNAcompete 7-mer binding Z-score” value was -0.0837. In the case of CUGCAUG, the “RNAcompete 7-mer binding Z-score” value is reported as -0.493. In the case of CCCAAUC, the “RNAcompete 7-mer binding Z-score” value is reported as -0.607. AGUGUUG was tested, and the “RNAcompete 7-mer binding Z-score” value was 0.725. With ACCUACA the “RNAcompete 7-mer binding Z-score” value was -0.72. In the case of AACUCGG, the “RNAcompete 7-mer binding Z-score” value is reported as -0.214. In the case of GGAUAGU, the “RNAcompete 7-mer binding Z-score” value is reported as 1.66.
